Reference: the antibiotic and cytotoxicity screens of Wong et al. (2023)
The list shows a part of the results.

What follows are compounds tested on HSkMC (human skeletal muscle cells) (assay: cytotoxicity call (relative viability < 0.9)). Conditions: 10 µM.
CCOC(=O)c1cc(=O)c2cc([C@@H]3CC(=O)N(C(=O)OCc4ccccc4)[C@@H]3C(=O)Nc3cccc4cccnc34)ccc2o1 was tested, and the cytotoxicity call was “inactive”. C[C@H](CO)N1C[C@H](C)[C@H](CN(C)S(C)(=O)=O)Oc2c(NC(=O)c3ccc(-c4nccs4)cc3)cccc2C1=O was tested, and the cytotoxicity call was “inactive”. C[C@@H]1CN([C@H](C)CO)C(=O)c2cccc(NC(=O)C3CCCCC3)c2O[C@H]1CN(C)Cc1ccc(C(F)(F)F)cc1 was tested, and the cytotoxicity call was “inactive”. For C[C@H](CO)N1C[C@H](C)[C@H](CN(C)S(=O)(=O)c2ccc(F)cc2)Oc2ccc(NS(=O)(=O)c3ccccc3)cc2CC1=O, the cytotoxicity call was “inactive”. In the case of C[C@@H]1CN([C@H](C)CO)S(=O)(=O)c2ccc(C#C[C@@H](C)O)cc2O[C@@H]1CN(C)C(=O)c1ccncc1, the cytotoxicity call is reported as “inactive”. With Cc1ccc(S[C@]2(C(=O)NCC(F)(F)F)CC(=O)N(Cc3ccccc3)[C@@H]2c2ccc(CO)cc2I)cc1 the cytotoxicity call was “inactive”. With C[C@H]1CN([C@@H](C)CO)C(=O)c2cccc(NS(=O)(=O)c3ccccc3)c2O[C@@H]1CN(C)Cc1ccc(-c2ccccc2)cc1 the cytotoxicity call was “inactive”. CC/C(=C\C(=O)O)c1ccccc1 was tested, and the cytotoxicity call was “inactive”. CC(C)CCCC(C)C1CCC2C3CC=C4CC(O)CCC4(C)C3CCC12C (stereo not drawn) was tested, and the cytotoxicity call was “inactive”. With O=C(C[C@@H]1CC[C@H]2[C@@H](COC[C@H](O)CN2C(=O)c2ccc3c(c2)OCO3)O1)NCCN1CCCC1 the cytotoxicity call was “inactive”. COc1ccccc1CN(C)C[C@H]1OCc2ccccc2-c2c(n(C)c3ccccc23)C(=O)N([C@@H](C)CO)C[C@H]1C was tested, and the cytotoxicity call was “inactive”. With C[C@@H]1CCCCO[C@H](CN(C)C(=O)Cc2ccccc2)[C@H](C)CN([C@@H](C)CO)C(=O)c2cc(NS(=O)(=O)c3cccs3)ccc2O1 the cytotoxicity call was “inactive”. In the case of COc1ccc(NC(=O)N(C)C[C@H]2Oc3c(NC(=O)c4ccc(-c5nccs5)cc4)cccc3C(=O)N([C@H](C)CO)C[C@@H]2C)cc1, the cytotoxicity call is reported as “inactive”. With O=C(O)[C@H]1CCCN1C(=O)c1cccnc1 the cytotoxicity call was “inactive”. C[C@@H]1CN([C@@H](C)CO)C(=O)c2cccc(NC(=O)Nc3ccc(C(F)(F)F)cc3)c2O[C@H]1CN(C)C(=O)Nc1ccccc1 was tested, and the cytotoxicity call was “inactive”. CCNc1nc(SCC(N)=O)nc(N2CCOCC2)n1 was tested, and the cytotoxicity call was “inactive”. With NC(=O)[C@H]1[C@@H]2C(=O)O[C@@H](c3ccccc3)[C@@H](c3ccccc3)N2[C@@H](c2ccc(O)cc2)[C@]12C(=O)Nc1ccc(C#CC3(O)CCCCCC3)cc12 the cytotoxicity call was “inactive”. In the case of COc1ccccc1CN(C)C[C@@H]1OCc2ccccc2-c2c(n(C)c3ccccc23)C(=O)N([C@@H](C)CO)C[C@@H]1C, the cytotoxicity call is reported as “inactive”. C[C@H](CO)N1C[C@H](C)[C@H](CN(C)C(=O)Nc2ccccc2C(F)(F)F)OCc2cnnn2CCCC1=O was tested, and the cytotoxicity call was “inactive”. In the case of C[C@@H]1CN([C@H](C)CO)S(=O)(=O)c2ccc(C#Cc3ccncc3)cc2O[C@@H]1CN(C)C(=O)Nc1ccc2c(c1)OCO2, the cytotoxicity call is reported as “inactive”. COc1ccc(NC(=O)N(C)C[C@H]2Oc3ccc(NS(=O)(=O)c4c(C)noc4C)cc3C(=O)N([C@@H](C)CO)C[C@@H]2C)cc1 was tested, and the cytotoxicity call was “inactive”. For C[C@@H]1CN([C@H](C)CO)C(=O)c2cc(-c3ccc(F)cc3)cnc2O[C@H]1CN(C)C(=O)Cc1ccccn1, the cytotoxicity call was “inactive”. With COc1ccc(S(=O)(=O)Nc2ccc3c(c2)C(=O)N([C@@H](C)CO)C[C@H](C)[C@H](CN(C)C(=O)NC2CCCCC2)OCCCC[C@@H](C)O3)cc1 the cytotoxicity call was “inactive”. With N#C[C@@H]1[C@@H](c2ccc(C#Cc3ccccn3)cc2)[C@H](CO)N1C(=O)CN1CCOCC1 the cytotoxicity call was “inactive”. In the case of C[C@H]1CN([C@@H](C)CO)S(=O)(=O)c2ccc(C#CC3CCCC3)cc2O[C@H]1CN(C)C(=O)Cc1ccncc1, the cytotoxicity call is reported as “inactive”. With COc1ccc(CN(C)C[C@@H]2OCCCC[C@H](C)Oc3ccc(NS(=O)(=O)c4ccc(C)cc4)cc3C(=O)N([C@@H](C)CO)C[C@@H]2C)cc1 the cytotoxicity call was “inactive”. With C[C@@H]1CN([C@@H](C)CO)C(=O)c2cc(NC(=O)Nc3ccc(F)cc3)ccc2O[C@@H](C)CCCCO[C@@H]1CN(C)C(=O)C1CCCCC1 the cytotoxicity call was “inactive”. With C[C@@H]1CN([C@@H](C)CO)C(=O)c2cc(NS(C)(=O)=O)ccc2O[C@@H]1CN(C)Cc1ccc2c(c1)OCO2 the cytotoxicity call was “inactive”.

What follows are compounds tested on HepG2 (assay: cytotoxicity call (relative viability < 0.9)). Conditions: 10 µM.
With Cc1cccc(C)c1NC(=O)c1ccccc1C(=O)O the cytotoxicity call was “active”. C[C@H]1CN([C@@H](C)CO)C(=O)c2c(c3ccccc3n2C)-c2ccccc2CO[C@@H]1CN(C)C(=O)Nc1cccc(Cl)c1Cl was tested, and the cytotoxicity call was “inactive”. In the case of CC(C)(C)[S@](=O)N1Cc2cc(C(=O)NCCc3ccncc3)nc(-c3cccc(-c4ccc(C#N)cc4)c3)c2[C@@H]1CCO, the cytotoxicity call is reported as “inactive”. In the case of C[C@H](CO)N1C[C@H](C)[C@H](CN(C)C(=O)NC2CCCCC2)Oc2ccc(NC(=O)Nc3ccc(C(F)(F)F)cc3)cc2C1=O, the cytotoxicity call is reported as “inactive”. With Cc1noc(C)c1NC(=O)Nc1ccc2c(c1)C(=O)N([C@H](C)CO)C[C@H](C)[C@@H](CN(C)S(=O)(=O)c1cccs1)OCCCC[C@@H](C)O2 the cytotoxicity call was “inactive”. In the case of Cc1noc(C)c1S(=O)(=O)Nc1ccc2c(c1)CC(=O)N([C@H](C)CO)C[C@H](C)[C@@H](CN(C)C(=O)NC(C)C)O2, the cytotoxicity call is reported as “inactive”. For CC(C)NC(=O)N[C@@H]1CC[C@H](CCN)O[C@H]1CO, the cytotoxicity call was “inactive”. For C[C@H](CO)N1C[C@H](C)[C@@H](CN(C)CC2CC2)Oc2ccc(NS(=O)(=O)c3cccs3)cc2CC1=O, the cytotoxicity call was “inactive”. For C[C@@H]1CN([C@@H](C)CO)C(=O)c2cc(NS(=O)(=O)c3cccs3)ccc2O[C@@H]1CN(C)Cc1ccncc1, the cytotoxicity call was “inactive”. C[C@@H]1CN([C@H](C)CO)C(=O)CCCn2nncc2CO[C@@H]1CN(C)C(=O)Nc1ccnc(N2CCOCC2)c1 was tested, and the cytotoxicity call was “inactive”. In the case of C=C(C)C1CCC2(C)CCC3(C)C(CCC4C5(C)CCC(OC(C)=O)C(C)(C)C5CCC43C)C12 (stereo not drawn), the cytotoxicity call is reported as “inactive”. For C[C@@H]1CN([C@H](C)CO)C(=O)c2cc(NC(=O)Cc3cn(C)c4ccccc34)ccc2O[C@@H]1CN(C)CC1CCCCC1, the cytotoxicity call was “inactive”. CCOC(=O)c1cc(=O)c2cc([C@@H]3CC(=O)N(C(=O)OCc4ccccc4)[C@@H]3C(=O)Nc3cccc4cccnc34)ccc2o1 was tested, and the cytotoxicity call was “inactive”. For C[C@H](CO)N1C[C@H](C)[C@H](CN(C)S(C)(=O)=O)Oc2c(NC(=O)c3ccc(-c4nccs4)cc3)cccc2C1=O, the cytotoxicity call was “inactive”. C[C@@H]1CN([C@H](C)CO)C(=O)c2cccc(NC(=O)C3CCCCC3)c2O[C@H]1CN(C)Cc1ccc(C(F)(F)F)cc1 was tested, and the cytotoxicity call was “inactive”. C[C@H](CO)N1C[C@H](C)[C@H](CN(C)S(=O)(=O)c2ccc(F)cc2)Oc2ccc(NS(=O)(=O)c3ccccc3)cc2CC1=O was tested, and the cytotoxicity call was “inactive”. C[C@@H]1CN([C@H](C)CO)S(=O)(=O)c2ccc(C#C[C@@H](C)O)cc2O[C@@H]1CN(C)C(=O)c1ccncc1 was tested, and the cytotoxicity call was “inactive”. With Cc1ccc(S[C@]2(C(=O)NCC(F)(F)F)CC(=O)N(Cc3ccccc3)[C@@H]2c2ccc(CO)cc2I)cc1 the cytotoxicity call was “inactive”. With C[C@H]1CN([C@@H](C)CO)C(=O)c2cccc(NS(=O)(=O)c3ccccc3)c2O[C@@H]1CN(C)Cc1ccc(-c2ccccc2)cc1 the cytotoxicity call was “inactive”. In the case of CC/C(=C\C(=O)O)c1ccccc1, the cytotoxicity call is reported as “inactive”. With CC(C)CCCC(C)C1CCC2C3CC=C4CC(O)CCC4(C)C3CCC12C (stereo not drawn) the cytotoxicity call was “inactive”. In the case of O=C(C[C@@H]1CC[C@H]2[C@@H](COC[C@H](O)CN2C(=O)c2ccc3c(c2)OCO3)O1)NCCN1CCCC1, the cytotoxicity call is reported as “inactive”. For COc1ccccc1CN(C)C[C@H]1OCc2ccccc2-c2c(n(C)c3ccccc23)C(=O)N([C@@H](C)CO)C[C@H]1C, the cytotoxicity call was “inactive”. In the case of C[C@@H]1CCCCO[C@H](CN(C)C(=O)Cc2ccccc2)[C@H](C)CN([C@@H](C)CO)C(=O)c2cc(NS(=O)(=O)c3cccs3)ccc2O1, the cytotoxicity call is reported as “inactive”. In the case of COc1ccc(NC(=O)N(C)C[C@H]2Oc3c(NC(=O)c4ccc(-c5nccs5)cc4)cccc3C(=O)N([C@H](C)CO)C[C@@H]2C)cc1, the cytotoxicity call is reported as “inactive”. With O=C(O)[C@H]1CCCN1C(=O)c1cccnc1 the cytotoxicity call was “inactive”. For C[C@@H]1CN([C@@H](C)CO)C(=O)c2cccc(NC(=O)Nc3ccc(C(F)(F)F)cc3)c2O[C@H]1CN(C)C(=O)Nc1ccccc1, the cytotoxicity call was “inactive”. With CCNc1nc(SCC(N)=O)nc(N2CCOCC2)n1 the cytotoxicity call was “inactive”. For NC(=O)[C@H]1[C@@H]2C(=O)O[C@@H](c3ccccc3)[C@@H](c3ccccc3)N2[C@@H](c2ccc(O)cc2)[C@]12C(=O)Nc1ccc(C#CC3(O)CCCCCC3)cc12, the cytotoxicity call was “inactive”. In the case of COc1ccccc1CN(C)C[C@@H]1OCc2ccccc2-c2c(n(C)c3ccccc23)C(=O)N([C@@H](C)CO)C[C@@H]1C, the cytotoxicity call is reported as “inactive”. With C[C@H](CO)N1C[C@H](C)[C@H](CN(C)C(=O)Nc2ccccc2C(F)(F)F)OCc2cnnn2CCCC1=O the cytotoxicity call was “inactive”. With C[C@@H]1CN([C@H](C)CO)S(=O)(=O)c2ccc(C#Cc3ccncc3)cc2O[C@@H]1CN(C)C(=O)Nc1ccc2c(c1)OCO2 the cytotoxicity call was “active”. COc1ccc(NC(=O)N(C)C[C@H]2Oc3ccc(NS(=O)(=O)c4c(C)noc4C)cc3C(=O)N([C@@H](C)CO)C[C@@H]2C)cc1 was tested, and the cytotoxicity call was “inactive”. C[C@@H]1CN([C@H](C)CO)C(=O)c2cc(-c3ccc(F)cc3)cnc2O[C@H]1CN(C)C(=O)Cc1ccccn1 was tested, and the cytotoxicity call was “inactive”. With COc1ccc(S(=O)(=O)Nc2ccc3c(c2)C(=O)N([C@@H](C)CO)C[C@H](C)[C@H](CN(C)C(=O)NC2CCCCC2)OCCCC[C@@H](C)O3)cc1 the cytotoxicity call was “inactive”. In the case of N#C[C@@H]1[C@@H](c2ccc(C#Cc3ccccn3)cc2)[C@H](CO)N1C(=O)CN1CCOCC1, the cytotoxicity call is reported as “inactive”. C[C@H]1CN([C@@H](C)CO)S(=O)(=O)c2ccc(C#CC3CCCC3)cc2O[C@H]1CN(C)C(=O)Cc1ccncc1 was tested, and the cytotoxicity call was “inactive”. In the case of COc1ccc(CN(C)C[C@@H]2OCCCC[C@H](C)Oc3ccc(NS(=O)(=O)c4ccc(C)cc4)cc3C(=O)N([C@@H](C)CO)C[C@@H]2C)cc1, the cytotoxicity call is reported as “inactive”. C[C@@H]1CN([C@@H](C)CO)C(=O)c2cc(NC(=O)Nc3ccc(F)cc3)ccc2O[C@@H](C)CCCCO[C@@H]1CN(C)C(=O)C1CCCCC1 was tested, and the cytotoxicity call was “inactive”. In the case of C[C@@H]1CN([C@@H](C)CO)C(=O)c2cc(NS(C)(=O)=O)ccc2O[C@@H]1CN(C)Cc1ccc2c(c1)OCO2, the cytotoxicity call is reported as “inactive”.
